Laboratory results published in the supplement of paper PMC4604168 (melanoma cell lines).
The list shows a part of the results. Repeats are few or missing, and single values can be far off.

Assays:
Test in all cases: cell count relative to DMSO control; melanoma cells; higher = more viable cells
Conditions in all cases: library dose: low library concentration; 72 h
MZ2-MEL = test system: MZ2-MEL
MeWo = test system: MeWo
RPMI7951 = test system: RPMI7951
RVH-421 = test system: RVH-421
SkMel28 = test system: SkMel28
SkMel2 = test system: SkMel2
SkMel30 = test system: SkMel30
SkMel5 = test system: SkMel5
UACC257 = test system: UACC257
UACC62 = test system: UACC62
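Also: cell number obtained by counting DAPI-stained nuclei in high-throughput microscope images with image analysis software, screen run in 1,536-well plates.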

SMILES | cell count (MZ2-MEL) [%] | cell count (MeWo) [%] | cell count (RPMI7951) [%] | cell count (RVH-421) [%] | cell count (SkMel28) [%] | cell count (SkMel2) [%] | cell count (SkMel30) [%] | cell count (SkMel5) [%] | cell count (UACC257) [%] | cell count (UACC62) [%]
O=C(O)c1ccc2c(c1)nc(Nc1cccc(Cl)c1)c1ccncc12 + O=c1cc(-c2cccc3c2Sc2ccccc2S3)oc(N2CCOCC2)c1 [KU55933] (first compound 0.4 µM, partner dose 1 µM) | 84.7 | 93.2 | 89 | 78.7 | 108 | 104 | 104 | 87.7 | 93.7 | 113
O=C(O)c1ccc2c(c1)nc(Nc1cccc(Cl)c1)c1ccncc12 + O=C(Nc1ccccc1)c1cc([N+](=O)[O-])ccc1Cl [GW9662] (first compound 0.4 µM, partner dose 2 µM) | 83.4 | 81.6 | 102 | 107 | 93.7 | 93.8 | 77.6 | 106 | 97.7 | 98.2
Cc1cc(N2CCOCC2)cc2[nH]c(-c3c(NC[C@@H](O)c4cccc(Cl)c4)cc[nH]c3=O)nc12 + O=C(O)c1ccc(-c2c[nH]c3ncc(-c4ccccc4)cc23)cc1C1CCCC1 [GSK650394] (first compound 0.2 µM, partner dose 0.16 µM) | 89.4 | 84.5 | 91.4 | 92.8 | 88.1 | 82.3 | 75.8 | 89.4 | 81.5 | 82.3
O=C(O)c1ccc2c(c1)nc(Nc1cccc(Cl)c1)c1ccncc12 + O=C(Nc1cccc(Cl)c1)Nc1ncc(CCNc2ncnc3ccsc23)s1 [SNS314] (first compound 0.4 µM, partner dose 0.0008 µM) | 104 | 85.3 | 125 | 88.4 | 105 | 105 | 105 | 117 | 90.5 | 94.6
O=C(O)[C@@H]1[O][Sb](=[O])([O][Sb]2(=[O])[O][C@H]([C@H](O)CO)[C@H](O)[C@H](C(=O)O)[O]2)[O][C@H]([C@H](O)CO)[C@@H]1O (stereo not given in full) [stibogluconate] + Cc1ccc(NC(=O)c2cccc(N(C)C)c2)cc1NC(=O)c1ccc(O)cc1 [ZM336372] (first compound 2 µM, partner dose 2 µM) | 74.5 | 99.1 | 88.6 | 131 | 116 | 109 | 87.9 | 104 | 112 | 127
O=C(O)c1ccc2c(c1)nc(Nc1cccc(Cl)c1)c1ccncc12 + CCN(CC)CCCCNc1ncc2cc(-c3cc(OC)cc(OC)c3)c(NC(=O)NC(C)(C)C)nc2n1 [PD173074] (first compound 0.4 µM, partner dose 0.1 µM) | 91.5 | 95.2 | 109 | 96.9 | 104 | 99.5 | 96.6 | 101 | 77.2 | 94.8
O=C(O)[C@@H]1[O][Sb](=[O])([O][Sb]2(=[O])[O][C@H]([C@H](O)CO)[C@H](O)[C@H](C(=O)O)[O]2)[O][C@H]([C@H](O)CO)[C@@H]1O (stereo not given in full) [stibogluconate] + O=C(O)c1ccc(-c2c[nH]c3ncc(-c4ccccc4)cc23)cc1C1CCCC1 [GSK650394] (first compound 2 µM, partner dose 0.16 µM) | 93.9 | 97 | 123 | 111 | 106 | 104 | 146 | 103 | 95.2 | 102
O=C(Nc1cc(C(F)(F)F)cc(C(F)(F)F)c1)c1cc(Cl)ccc1O + O=S(=O)(c1ccccc1)N(CC(F)(F)F)c1ccc(C(O)(C(F)(F)F)C(F)(F)F)cc1 [T0901317] (first compound 0.016 µM, partner dose 1.4 µM) | 91.3 | 95.9 | 81.9 | 94.2 | 110 | 98.6 | 88.1 | 80 | 80.2 | 89.1
O=C(Nc1cc(C(F)(F)F)cc(C(F)(F)F)c1)c1cc(Cl)ccc1O + Cc1ccc(NC(=O)c2cccc(N(C)C)c2)cc1NC(=O)c1ccc(O)cc1 [ZM336372] (first compound 0.016 µM, partner dose 2 µM) | 66.7 | 91.5 | 90.8 | 99.2 | 94.7 | 102 | 97.4 | 101 | 84.9 | 91.2
O=C(O)c1ccc2c(c1)nc(Nc1cccc(Cl)c1)c1ccncc12 + Oc1nc(-c2ccc(C(F)(F)F)cc2)nc2c1CSCC2 [XAV939] (first compound 0.4 µM, partner dose 2 µM) | 87.1 | 90.3 | 82.1 | 99.5 | 105 | 108 | 55.2 | 77.1 | 100 | 94.3
O=C(O)c1ccc2c(c1)nc(Nc1cccc(Cl)c1)c1ccncc12 + CO[C@@H]1[C@H](N(C)C(=O)c2ccccc2)C[C@H]2O[C@]1(C)n1c3ccccc3c3c4c(c5c6ccccc6n2c5c31)C(=O)NC4 [Midostaurin] (first compound 0.4 µM, partner dose 0.08 µM) | 88.7 | 77.6 | 94.5 | 95.5 | 112 | 71.6 | 61.9 | 104 | 88 | 91.8
O=C(Nc1cc(C(F)(F)F)cc(C(F)(F)F)c1)c1cc(Cl)ccc1O + COc1cc2c(Oc3ccc4[nH]c(C)cc4c3F)ncnc2cc1OCCCN1CCCC1 [cediranib] (first compound 0.016 µM, partner dose 0.4 µM) | 98.2 | 91 | 90.4 | 89.3 | 91.1 | 97.5 | 81 | 97.8 | 84.1 | 92.3
Cn1nnc2c(C(N)=O)ncn2c1=O [temozolomide] + Cc1ccc(NC(=O)c2cccc(N(C)C)c2)cc1NC(=O)c1ccc(O)cc1 [ZM336372] (first compound 2 µM, partner dose 2 µM) | 75.2 | 102 | 102 | 123 | 73 | 118 | 79.6 | 107 | 100 | 75.2
O=C(O)c1ccc2c(c1)nc(Nc1cccc(Cl)c1)c1ccncc12 + COc1ccc2c(c1)CCC1C2CCC2(C)C(NCCCCCCN3C(=O)C=CC3=O)CCC12 [U73122] (first compound 0.4 µM, partner dose 0.4 µM) | 88.6 | 90.7 | 95.8 | 116 | 100 | 96.4 | 109 | 101 | 95.9 | 90.5
O=C(Nc1cc(C(F)(F)F)cc(C(F)(F)F)c1)c1cc(Cl)ccc1O + COc1cc(Nc2ncc(F)c(Nc3ccc4c(n3)NC(=O)C(C)(C)O4)n2)cc(OC)c1OC [Tamatinib] (first compound 0.016 µM, partner dose 0.4 µM) | 85.1 | 77.7 | 98.2 | 98.4 | 88 | 101 | 91.7 | 98.7 | 81.3 | 83.1
O=C(Nc1cc(C(F)(F)F)cc(C(F)(F)F)c1)c1cc(Cl)ccc1O + C[C@@H]1CCN(C(=O)CC#N)C[C@@H]1N(C)c1ncnc2[nH]ccc12 [CP690550] (first compound 0.016 µM, partner dose 1 µM) | 95.9 | 94.6 | 98.9 | 136 | 115 | 94.3 | 119 | 91.8 | 98.4 | 101
O=C(Nc1cc(C(F)(F)F)cc(C(F)(F)F)c1)c1cc(Cl)ccc1O + CC(C)CCN1c2nc(Nc3cc(F)c(O)c(F)c3)ncc2N(C)C(=O)C1C [BID1870] (first compound 0.016 µM, partner dose 0.2 µM) | 98.5 | 90.6 | 83.6 | 84 | 97.4 | 104 | 87.7 | 99 | 85.2 | 91.3
O=C(O)c1ccc2c(c1)nc(Nc1cccc(Cl)c1)c1ccncc12 + NCC(=O)Nc1ccc(-n2nc(C(F)(F)F)cc2-c2ccc3c(ccc4ccccc43)c2)cc1 [OSU03012] (first compound 0.4 µM, partner dose 1 µM) | 99.9 | 60 | 101 | 108 | 83 | 72.1 | 62.1 | 95.2 | 76.2 | 87.5
Cc1cc(N2CCOCC2)cc2[nH]c(-c3c(NC[C@@H](O)c4cccc(Cl)c4)cc[nH]c3=O)nc12 + O=C(Nc1cccc(Cl)c1)Nc1ncc(CCNc2ncnc3ccsc23)s1 [SNS314] (first compound 0.2 µM, partner dose 0.0008 µM) | 107 | 91.3 | 93.6 | 76.3 | 88.6 | 84.8 | 92 | 88.9 | 74.4 | 88.2
O=C(O)[C@@H]1[O][Sb](=[O])([O][Sb]2(=[O])[O][C@H]([C@H](O)CO)[C@H](O)[C@H](C(=O)O)[O]2)[O][C@H]([C@H](O)CO)[C@@H]1O (stereo not given in full) [stibogluconate] + CCc1ccc(CCOc2ccc(CC3SC(=O)NC3=O)cc2)nc1 [pioglitazone] (first compound 2 µM, partner dose 2 µM) | 99.4 | 106 | 105 | 102 | 96.7 | 105 | 129 | 114 | 121 | 112
O=C(Nc1cc(C(F)(F)F)cc(C(F)(F)F)c1)c1cc(Cl)ccc1O + O=C(CCCCCCC(=O)Nc1ccccc1)NO [vorinostat] (first compound 0.016 µM, partner dose 0.08 µM) | 100 | 87.2 | 90.5 | 80.3 | 79.5 | 89 | 104 | 82.2 | 79.8 | 87
